Reference: patent publication US20210130473A1, “TGFßR1 INHIBITOR-ASGR ANTIBODY CONJUGATES AND USES THEREOF” (Silverback Therapeutics, Inc., priority 2019, published 2021)

T1: HepG2 cells (which express ASGR1) (Homo sapiens, UniProt P07306)
T1 construct: endogenous in cells; host or cells: HepG2
T1 sequence (P07306 1-291): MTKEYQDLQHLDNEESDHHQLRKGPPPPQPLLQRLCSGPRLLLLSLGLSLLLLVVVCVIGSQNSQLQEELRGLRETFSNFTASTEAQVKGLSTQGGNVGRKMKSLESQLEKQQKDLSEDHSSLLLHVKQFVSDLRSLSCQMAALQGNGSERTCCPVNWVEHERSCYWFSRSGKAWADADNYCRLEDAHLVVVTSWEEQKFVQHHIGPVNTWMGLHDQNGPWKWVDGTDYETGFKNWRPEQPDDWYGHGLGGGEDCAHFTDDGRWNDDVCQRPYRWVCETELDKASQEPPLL


Biological target: T1, HepG2 cells (which express ASGR1)
Assay: Guava HepG2 cell binding screen of anti-ASGR1 mAbs
Details: humanized G2D clones; two numbers per cell, their meaning is not given
Protocol: Additionally, hybridomas producing monoclonal antibodies (mAbs) specific for human ASGR1 were prepared from Balb/C mice immunized with ASGR1-AviHis at a service provider using their propriety protocol. Antibody heavy and light chain sequences were obtained, amplified, and cloned. Clone supernatants containing the expressed mAbs were screened for binding to a human ASGR1-IgG1Fc fusion protein, and those with a positive signal as measured by enzyme linked immunosorbent assay (ELISA) were screened for cell binding on HepG2 cells (which express ASGR1). […] The isolated mAbs were further analyzed for the additional characteristics including, for example, titer, low aggregate content following protein A purification, high titer, lack of cross-blocking of ligand GalNac, calcium sensitivity, and cross-reactivity with rat ASGR1 protein.

Guava HepG2 Screen | Molecule
158/113 | hzG2D-12: humanized G2D clone; VL "grafted into the human germline sequence VKI-L1 with JK4 to generate hzG2D VLa (SEQ ID NO:131)" (antibody) heavy: QVQLVQSGAEVKKPGASVKVSCKASGYSFTGYYMHWVRQAPGQRLEWMGRINPNNGATNYNQNFKDKATITRDTSASTAYMELSSLRSEDTAVYYCTSVNFYYWGQGTTLTVSS[… human IgG1 constant region …] light: DIQMTQSPSSLSASVGDRVTITCKASQVINSYLSWFQQKPGKAPKSLIYRANTLVDGVPSRFSGSGSGTDFTLTISSLQPEDFATYYCLQYAEFPYTFGGGTKVEIKRTVAAPSVFIFPPSDEQLKSGTASVVCLLNNFYPREAKVQWKVDNALQSGNSQESVTEQDSKDSTYSLSSTLTLSKADYEKHKVYACEVTHQGLSSPVTKSFNRGEC
140/83 | hzG2D-13: humanized G2D clone; VL "grafted into the human germline sequence VKI-L1 with JK4 to generate hzG2D VLa (SEQ ID NO:131)" (antibody) heavy: QVQLVQSGAEVKKPGASVKVSCKASGYSFTGYYMHWVRQAPGQRLEWMGRINPNNGATNYNQNFKDRVSLTVDTSASTAYMELSSLRSEDTAVYYCTSVNFYYWGQGTTLTVSS[… human IgG1 constant region …] light: DIQMTQSPSSLSASVGDRVTITCKASQVINSYLSWFQQKPGKAPKSLIYRANTLVDGVPSRFSGSGSGTDFTLTISSLQPEDFATYYCLQYAEFPYTFGGGTKVEIKRTVAAPSVFIFPPSDEQLKSGTASVVCLLNNFYPREAKVQWKVDNALQSGNSQESVTEQDSKDSTYSLSSTLTLSKADYEKHKVYACEVTHQGLSSPVTKSFNRGEC
149/63 | hzG2D-10: humanized G2D clone; VL "grafted into the human germline sequence VKI-L1 with JK4 to generate hzG2D VLa (SEQ ID NO:131)" (antibody) heavy: QVQLVQSGAEVKKPGASVKVSCKASGYTFTGYYMHWVRQAPGQRLEWMGRINPNNGATNYNQNFKDRVSLTVDTSASTAYMELSSLRSEDTAVYYCTSVNFYYWGQGTTLTVSS[… human IgG1 constant region …] light: DIQMTQSPSSLSASVGDRVTITCKASQVINSYLSWFQQKPGKAPKSLIYRANTLVDGVPSRFSGSGSGTDFTLTISSLQPEDFATYYCLQYAEFPYTFGGGTKVEIKRTVAAPSVFIFPPSDEQLKSGTASVVCLLNNFYPREAKVQWKVDNALQSGNSQESVTEQDSKDSTYSLSSTLTLSKADYEKHKVYACEVTHQGLSSPVTKSFNRGEC
155/117 | hzG2D-9: humanized G2D clone; VL "grafted into the human germline sequence VKI-L1 with JK4 to generate hzG2D VLa (SEQ ID NO:131)" (antibody) heavy: QVQLVQSGAEVKKPGASVKVSCKASGYTFTGYYMHWVRQAPGQRLEWMGRINPNNGATNYNQNFKDKATITRDTSASTAYMELSSLRSEDTAVYYCTSVNFYYWGQGTTLTVSS[… human IgG1 constant region …] light: DIQMTQSPSSLSASVGDRVTITCKASQVINSYLSWFQQKPGKAPKSLIYRANTLVDGVPSRFSGSGSGTDFTLTISSLQPEDFATYYCLQYAEFPYTFGGGTKVEIKRTVAAPSVFIFPPSDEQLKSGTASVVCLLNNFYPREAKVQWKVDNALQSGNSQESVTEQDSKDSTYSLSSTLTLSKADYEKHKVYACEVTHQGLSSPVTKSFNRGEC

Second part, the molecule before the results:

Molecule | Guava HepG2 Screen
hzG2D-3: humanized G2D clone; VL "grafted into the human germline sequence VKI-L1 with JK4 to generate hzG2D VLa (SEQ ID NO:131)" (antibody) heavy: QVQLVQSGAEVKKPGASVKVSCKASGYTFTGYYMHWVRQAPGQRLEWMGRINPNNGATNYNQNFKDRVTITRDTSASTAYMELSSLRSEDTAVYYCTSVNFYYWGQGTTLTVSS[… human IgG1 constant region …] light: DIQMTQSPSSLSASVGDRVTITCKASQVINSYLSWFQQKPGKAPKSLIYRANTLVDGVPSRFSGSGSGTDFTLTISSLQPEDFATYYCLQYAEFPYTFGGGTKVEIKRTVAAPSVFIFPPSDEQLKSGTASVVCLLNNFYPREAKVQWKVDNALQSGNSQESVTEQDSKDSTYSLSSTLTLSKADYEKHKVYACEVTHQGLSSPVTKSFNRGEC | 131/95
hzG2D-6: humanized G2D clone; VL "grafted into the human germline sequence VKI-L1 with JK4 to generate hzG2D VLa (SEQ ID NO:131)" (antibody) heavy: QVQLVQSGAEVKKPGASVKVSCKASGYTFTGYYMHWVRQAPGQRLEWMGRINPNNGATNYNQNFKDRVSLTVDTSASTAYMELSSLRSEDTAVYYCARVNFYYWGQGTTLTVSS[… human IgG1 constant region …] light: DIQMTQSPSSLSASVGDRVTITCKASQVINSYLSWFQQKPGKAPKSLIYRANTLVDGVPSRFSGSGSGTDFTLTISSLQPEDFATYYCLQYAEFPYTFGGGTKVEIKRTVAAPSVFIFPPSDEQLKSGTASVVCLLNNFYPREAKVQWKVDNALQSGNSQESVTEQDSKDSTYSLSSTLTLSKADYEKHKVYACEVTHQGLSSPVTKSFNRGEC | 39/23
hzG2D-7: humanized G2D clone; VL "grafted into the human germline sequence VKI-L1 with JK4 to generate hzG2D VLa (SEQ ID NO:131)" (antibody) heavy: QVQLVQSGAEVKKPGASVKVSCKASGYSFTGYYMHWVRQAPGQRLEWMGRINPNNGATNYNQNFKDKATITRDTSASTAYMELSSLRSEDTAVYYCARVNFYYWGQGTTLTVSS[… human IgG1 constant region …] light: DIQMTQSPSSLSASVGDRVTITCKASQVINSYLSWFQQKPGKAPKSLIYRANTLVDGVPSRFSGSGSGTDFTLTISSLQPEDFATYYCLQYAEFPYTFGGGTKVEIKRTVAAPSVFIFPPSDEQLKSGTASVVCLLNNFYPREAKVQWKVDNALQSGNSQESVTEQDSKDSTYSLSSTLTLSKADYEKHKVYACEVTHQGLSSPVTKSFNRGEC | 46/22
hzG2D-5: humanized G2D clone; VL "grafted into the human germline sequence VKI-L1 with JK4 to generate hzG2D VLa (SEQ ID NO:131)" (antibody) heavy: QVQLVQSGAEVKKPGASVKVSCKASGYSFTGYYMHWVRQAPGQRLEWMGRINPNNGATNYNQNFKDRVTITRDTSASTAYMELSSLRSEDTAVYYCTSVNFYYWGQGTTLTVSS[… human IgG1 constant region …] light: DIQMTQSPSSLSASVGDRVTITCKASQVINSYLSWFQQKPGKAPKSLIYRANTLVDGVPSRFSGSGSGTDFTLTISSLQPEDFATYYCLQYAEFPYTFGGGTKVEIKRTVAAPSVFIFPPSDEQLKSGTASVVCLLNNFYPREAKVQWKVDNALQSGNSQESVTEQDSKDSTYSLSSTLTLSKADYEKHKVYACEVTHQGLSSPVTKSFNRGEC | 91/55
hzG2D-8: humanized G2D clone; VL "grafted into the human germline sequence VKI-L1 with JK4 to generate hzG2D VLa (SEQ ID NO:131)" (antibody) heavy: QVQLVQSGAEVKKPGASVKVSCKASGYSFTGYYMHWVRQAPGQRLEWMGRINPNNGATNYNQNFKDRVSLTVDTSASTAYMELSSLRSEDTAVYYCARVNFYYWGQGTTLTVSS[… human IgG1 constant region …] light: DIQMTQSPSSLSASVGDRVTITCKASQVINSYLSWFQQKPGKAPKSLIYRANTLVDGVPSRFSGSGSGTDFTLTISSLQPEDFATYYCLQYAEFPYTFGGGTKVEIKRTVAAPSVFIFPPSDEQLKSGTASVVCLLNNFYPREAKVQWKVDNALQSGNSQESVTEQDSKDSTYSLSSTLTLSKADYEKHKVYACEVTHQGLSSPVTKSFNRGEC | 31/21
hzG2D-4: humanized G2D clone; VL "grafted into the human germline sequence VKI-L1 with JK4 to generate hzG2D VLa (SEQ ID NO:131)" (antibody) heavy: QVQLVQSGAEVKKPGASVKVSCKASGYTFTGYYMHWVRQAPGQRLEWMGRINPNNGATNYNQNFKDKATITRDTSASTAYMELSSLRSEDTAVYYCARVNFYYWGQGTTLTVSS[… human IgG1 constant region …] light: DIQMTQSPSSLSASVGDRVTITCKASQVINSYLSWFQQKPGKAPKSLIYRANTLVDGVPSRFSGSGSGTDFTLTISSLQPEDFATYYCLQYAEFPYTFGGGTKVEIKRTVAAPSVFIFPPSDEQLKSGTASVVCLLNNFYPREAKVQWKVDNALQSGNSQESVTEQDSKDSTYSLSSTLTLSKADYEKHKVYACEVTHQGLSSPVTKSFNRGEC | 55/22
